According to PubChem BioAssay AID1508624 (National Center for Advancing Translational Sciences (NCATS), 2021):
In all, about 48,000 compounds went through this assay and about 120 (0.25%) were called active. Another 4% or so got no clear call; they are omitted. Calls follow the shape of the dose curve; as a rule, active = well fitted activation curve with a large enough effect; inconclusive = small, poorly fitted or top-dose-only effect, or another doubt; inactive = no such curve, though single readings can be large or run the other way. This is one part of the list.

Assay: Primary qHTS for Identification of Small Molecule Activators of Huntingtin-Antisense Promoter Activity; also: nearly all actives have a fitted effect of over 55% in size
Settings: HEK293 HTT-AS promoter firefly luciferase reporter, 24 h; series mostly up to 57.5 µM; activity change, positive = activation: at the top concentration
Summary of the method: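 HEK293 Fluc reporter, 2,500 cells/well, 24 h pre-culture; cpds up to 57.5 uM final, 24 h 37 degrees C; Dual-Glo, 10 min RT; normalized vehicle = 0%, zero RLU = -100%.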

Activity change, positive = activation, inactive:
CCCCOc1ccc(C(=O)N2CCCCC2CCN2CCOCC2)cc1 (centres undefined) -10.8%
CC1CCC(NC(=O)c2ccc(CS(=O)(=O)c3ccc(Cl)cc3)o2)CC1 (centres undefined) -31.1%
CCN(CC)S(=O)(=O)c1ccc(C(=O)NCCSc2c(-c3ccc(F)cc3)[nH]c3ccccc23)cc1 -35.2%
Cc1cc(C)c(S(=O)(=O)NCC(c2ccco2)N2CCOCC2)c(C)c1 (centres undefined) -18.7%
CCc1nc2c(cnn2-c2ccc(C)cc2)c(=O)n1Cc1ccccc1 -28.4%
CCOC(=O)N1CCc2c(sc3c2c(=O)n(Cc2ccccc2)c(=O)n3Cc2cccc(C)c2)C1 -14.1%
CC=CC(=O)N(CC)c1ccccc1C -39.6%
Cc1ccc(-c2onc(C)c2C)cc1S(=O)(=O)NCc1ccc(N(C)C)cc1 -27.7%
COc1ccc(NC(=O)c2cc(C)nc3c2c(C)nn3-c2ccc(C)cc2)cc1OC -29.8%
C=CCC(CC=C)(CNC(=O)C(=O)Nc1ccc(C)cc1)c1ccccc1 28.3%
COc1cccc(Cn2c(=O)n(-c3cccc(Cl)c3)c(=O)c3c4c(sc32)CN(C(C)=O)CC4)c1 -39%
CCOc1ccc(NC(=O)CN2CCN(S(=O)(=O)c3ccc(OC)cc3)CC2)cc1 -16%
CCOc1cc(OCC)cc(C(=O)Nc2cccc(-c3nc4ccccc4[nH]3)c2)c1 -68.1%
COc1ccccc1-c1nnc(C2CCN(C(=O)c3cccc(C)c3)CC2)o1 -11.9%
CCn1c(=O)cc(OCC(=O)NCc2ccccc2OC)c2ccccc21 -11.8%
Cc1ccccc1Nc1nn2c(=O)c3ccc(C(=O)NCc4ccccc4)cc3nc2s1 -21%
O=C(C1CC1)N1CC[C@@H](Cn2c(-c3ccc(-c4ccc5occc5c4)cc3)nc3cnccc32)C1 3.9%
CCN(CC)CCNC(=O)C(=O)NCC(c1ccc2c(c1)OCO2)N1CCOCC1 (centres undefined) -10.7%
COCc1cc(C)nc2c1C(=O)NC(c1ccc(C)cc1)N2Cc1ccccc1 (centres undefined) -26.1%
O=C(CSc1cn(CC(=O)N2CCCCC2)c2ccccc12)NCc1ccccc1 -29.1%
CCCN1C(=O)c2[nH]nc(-c3ccccc3)c2C1c1cccc(O)c1 (centres undefined) -20.9%
CCOc1ccc(-c2nnc(SCC(=O)NCc3ccccc3Cl)o2)cc1 -5.33%
Cc1ccc(NC(=O)c2oc3ccccc3c2NC(=O)Cc2ccccc2)cc1 5.92%
CCOc1ccc(CNC(=O)C2CCN(c3nnc(-n4c(C)ccc4C)s3)CC2)cc1 -41%
CCOc1ccc(S(=O)(=O)N2CCN(c3cccc(C(F)(F)F)c3)CC2)cc1OCC -18.8%
COc1ccccc1NC(=O)CSC1=Nc2ccccc2C2=NC(Cc3ccccc3)C(=O)N12 (centres undefined) -15.1%
COc1ccc2c(c1)CCc1sc(NC(=O)c3cccc(Br)c3)nc1-2 -16.3%
O=C(NCc1ccccc1F)c1sc2ncccc2c1-n1cccc1 -4.95%
CCn1cc2nc(SCC(=O)Nc3ccc(C)cc3)n(Cc3ccc(C)cc3)c(=O)c2n1 -2.75%
COC(=O)CN1C(=O)C(C)(C)c2cc(S(=O)(=O)Nc3ccc(Br)cc3F)ccc21 -21.3%
O=C(O)Cn1cnnn1 0.636%
Cc1[nH]c2ccc(Br)cc2c1CCNC(=O)c1cc2ccccc2oc1=O -13.7%
CCN(CC)c1ccc(NC(=O)CN2CCN(c3ccccc3F)CC2)cc1 1.18%
O=S(=O)(NCCS(=O)(=O)N1CCN(c2cccc(Cl)c2)CC1)c1ccc(F)cc1 -20.2%
CCOc1ccc(C2=NC(c3cccs3)=Nc3ccc(CC)cc3N2)cc1OCC 14.2%
CNCCc1ccccn1 2.54%
CC(=O)N1CCCc2cc(S(=O)(=O)N3CCCC(C(=O)Nc4ccc(C)cc4C)C3)ccc21 (centres undefined) -10.3%
Cc1cccc(NC(=O)CN2C(=O)C(c3ccccc3)=NC23CCC(C)CC3)c1 (centres undefined) -20.9%
CC(=O)c1cccc(-n2c(=O)c3c4c(sc3n(Cc3cccc(C)c3)c2=O)CN(C(C)=O)CC4)c1 -22.7%
Cc1cc(C)n(CCc2nc3c4ccccc4nc(N4CCN(c5cccc(C)c5C)CC4)n3n2)n1 -3.52%
CCCCN(C)CCCNC(=O)C1CCN(S(=O)(=O)CC)CC1 -3.56%
CC1=C(C)C(=O)C(C(CCCCCC(=O)O)c2ccccc2)=C(C)C1=O (centres undefined)
Cc1c2cnn(CC(=O)N3CCN(c4ccccc4)CC3)c(=O)c2c(C)n1Cc1ccccc1Cl -3.89%
CSc1ncc(Cl)c(C(=O)Nc2ccc(S(=O)(=O)Nc3nccc(C)n3)cc2)n1 -15.7%
CCCCN(C)CCCNC(=O)CN1N=C(c2ccc(OC)cc2)CCC1=O -10.2%
CC(=O)C1=C(c2ccccc2)N(C(C)=O)n2c(nnc2C2CCCCC2)S1 -17%
CC(=O)c1ccc(NC(=O)CCc2c(C)nc3c(c2C)c(=O)n(C)c(=O)n3C)cc1 5.34%
Cc1cc(C)cc(-n2cnc3cc(C(=O)NC4CCCCCC4)ccc32)c1 -34.1%
COc1ccc(CCNC(=O)c2cc3n(n2)CCCN(Cc2ccc(C)cc2)C3=O)cc1OC -4.65%
O=C(NCc1ccc(Cl)cc1)c1ccc(Cn2c(=O)c3cccn3c3cccnc32)cc1 -20.1%
COc1ccc(S(=O)(=O)N2CCN(Cc3nc4ccc(C)cc4o3)CC2)cc1 -6.55%
Cc1ccc(C)c(Nc2nnc(-c3ccc(C)c(S(=O)(=O)NCC4CCCO4)c3)c3ccccc23)c1 (centres undefined) -37.6%
O=C(Cn1c(=O)n(Cc2nc(-c3ccccc3)no2)c(=O)c2ccccc21)Nc1cccc(Cl)c1 -27.3%
Cc1cnc(Nc2ccc(OCCN3CCCC3)cc2)nc1Nc1cccc(S(=O)(=O)NC(C)(C)C)c1 -34.1%
COc1ccc(-c2c(C)c3ccc(O)c(CN4CCCC(C)C4)c3oc2=O)cc1OC (centres undefined) -21.2%
O=C1CCc2cc(S(=O)(=O)NC(C(=O)Nc3cccc(F)c3)c3ccccc3)ccc2N1 (centres undefined) 26.2%
COCCCNC(=O)c1ccc2c(c1)N(Cc1ccccc1F)C(=O)c1ccccc1S2=O (centres undefined) -21.8%
COc1ccc(-c2nnc(SCC(=O)Nc3ccc(C)c(C)c3)s2)cc1 17.9% [at 11.5 µM, percent change from vehicle, -100% = no light]
CCOc1ccc(N2C(=O)c3[nH]nc(-c4ccc(OC)cc4)c3C2c2cccs2)cc1 (centres undefined) -34.3%
COc1ccc(C(=O)Nc2ccc3c(c2)CCCN3S(=O)(=O)c2ccc(C)cc2)c(OC)c1 9.2%
CCc1ccc(S(=O)(=O)c2cn(C)c3cc(N4CCCC4)c(F)cc3c2=O)cc1 -10.6%
O=C(NCc1ccco1)c1ccc2c(c1)N(Cc1ccc(Cl)cc1)C(=O)c1ccccc1S2(=O)=O -32.7%
COC(=O)c1nnn(-c2ccc(Br)cc2)c1C(=O)OC -5.64%
Cc1cc(C)cc(C(=O)NCC(c2ccc(N(C)C)cc2)N2CCCC2)c1 (centres undefined) -10.5%
CN(Cc1ccccc1)c1ccc(-c2nc(-c3ccncc3)no2)cc1[N+](=O)[O-] -13.1%
CCOC(=O)CC(NC(=O)CCc1c(C)nc2ncnn2c1C)c1ccc(C)cc1 (centres undefined) -3.83%
Cc1cn2c(=O)c(S(=O)(=O)Nc3ccc(F)cc3F)c(C)nc2s1 -14%
COc1cccc(NC(=O)C2CCCN(S(=O)(=O)c3cccc4nonc34)C2)c1 (centres undefined) -11.8%
O=C(NCCC1=CCCCC1)C1CCN(C(=O)N2CCOc3ccc(Cl)cc32)CC1 -16.7%
O=C(c1cnn(-c2ccc(F)cc2)c1-n1cccc1)N1CCN(c2ccc(Cl)cc2)CC1 -13.3%
COc1ccccc1NC(=O)Cn1c(=O)c(CNc2ccccc2)cc2cc(OC)c(OC)cc21 -1.22%
Fc1ccc(-n2ncc3c(Nc4cccc(Cl)c4)ncnc32)cc1 13.1%
Cc1cccc(CNC(=O)c2ccc3c(c2)c(C)c(C)n3Cc2ccccc2)c1 -27.6%
COc1ccccc1C1C=C(c2ccc(C(C)C)cc2)Nc2nnnn21 (centres undefined) -19.5% [at 11.5 µM, percent change from vehicle, -100% = no light]
CSc1ncc(Cl)c(C(=O)N(Cc2ccc(C)cc2)C2CCS(=O)(=O)C2)n1 (centres undefined) 12.7%
Cc1cc(C)cc(OCc2cc(=O)n3c(-c4ccccc4)csc3n2)c1 -0.925%
COc1cc(OC)cc(-c2nc3nc(C)c(CCC(=O)Nc4ccc(C)cc4C)c(C)n3n2)c1 -19.6%
O=S(=O)(c1ccccc1)c1nnn2c1nc(NCc1ccc(Cl)cc1)c1sccc12 -1.09%
CCN(CC)S(=O)(=O)c1ccc(C(=O)Nc2nc3ccc(Cl)cc3s2)cc1 -11.7%
O=C1CCc2cc(S(=O)(=O)NCc3ccccc3Cl)cc3c2N1CC3 9.46%
COc1cccc(NC(=O)Cn2cc(S(=O)(=O)Cc3ccccc3F)c3ccccc32)c1 -26.6%
CCOC(=O)N1CCN(Cc2nc3cc(NC(=O)c4cccc(C)c4)ccc3n2C(C)C)CC1 -24.3%
O=C(CCn1ccc2cc(S(=O)(=O)N3CCCC3)ccc21)NCc1ccccc1F -10%
Cc1ccc(S(=O)(=O)c2nnn3c2nc(NCc2cccs2)c2sccc23)cc1 -27.3%
CCn1nc(C)c2c(-c3ccccc3)cc(=O)n(C(C)C(=O)NCc3ccccc3OC)c21 (centres undefined) -23.3%
COc1cccc(NC(=O)c2oc3ccccc3c2NC(=O)C2CCCCC2)c1 8.3%
COc1cc(Nc2nc(SCc3ccccc3Cl)nc3ccccc23)cc(OC)c1 -34.2%
CCc1ccccc1NC(=O)CCCN1C(=O)CCn2nc(-c3cn(C)c4ccccc34)cc21 -2.43%
COc1ccc(C(=O)/C=C/c2cn(CC(O)CN3CCc4ccccc43)c3ccccc23)cc1 (centres undefined) -30.2%
CCOCc1cc(CN2CCN(c3ccccc3OC)CC2)c(O)c2ncccc12 -35.9%
CCOc1ccc(NC(=O)CSc2oc(-c3ccccc3)nc2S(=O)(=O)c2ccc(Cl)cc2)cc1 -7.39%
COC(=O)c1cc(NC(=O)c2cc3sccc3n2Cc2ccc(Cl)cc2)cc(C(=O)OC)c1 -19.1%
O=C1NC(NS(=O)(=O)c2ccccc2)(C(F)(F)F)C(=O)N1c1ccc(F)cc1 (centres undefined) -3.35%
Cc1cc(N2CCC(C(=O)N(CC(C)C)CC(C)C)CC2)n2nc(C)c(-c3ccc(Cl)cc3)c2n1 -1.7%
